# Results reported in PubChem BioAssay AID2546 (National Center for Advancing Translational Sciences (NCATS), 2010).
# In all, about 310,000 compounds went through this assay and about 11,000 (3.5%) were called active. The inconclusive results got no clear call from the source; some entries with a clear call stand among them for comparison. Calls come from the whole dose curve; as a rule, active = well fitted inhibition curve with a large enough effect; inconclusive = small, poorly fitted or top-dose-only effect, or effect the other way; inactive = flat fitted curve, though single readings scatter. Potencies of inconclusive entries are left out as doubtful fits.
# Test: VP16 counterscreen qHTS for inhibitors of ROR gamma transcriptional activity;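 note: Gal4-VP16 expression switched on by copper sulfate through the metallothionein promoter; nearly all actives have a fitted effect of over 50% in size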
# Settings: Drosophila S2 Gal4-VP16 UAS-luciferase, luminescence, 20 h; series mostly up to 53.6 µM
# Potency is the fitted concentration of half-maximal effect; tags give direction and shape of the fitted curve.
row,SMILES,Potency
1,O=C(CSc1nc2ccc(N3CCOCC3)cc2c(=O)n1CCc1ccccc1)NCC1CCCO1 (configuration not stated),active: 12.6 µM
2,OC1(c2ccc(OC(F)F)cc2)CSC(=Nc2cccnc2)N1C1CC1 (configuration not stated),"inconclusive [inhibitor, single point]"
3,COc1ccc2[nH]c3c(NCCN(C(C)C)C(C)C)ncnc3c2c1,inactive
4,CC(=O)/C(=N\Nc1ccc(Cl)cc1)Sc1nnc(-c2ccccc2)n1-c1ccccc1,active: 6.31 µM
5,COc1ccc(/C=C/C(=O)Nc2cccc(C(C)=O)c2)cc1,active: 6.31 µM
6,Cc1ccnc(N/C=C/C(=O)c2ccc(Br)cc2)c1,"inconclusive [inhibitor, partial curve]"
7,C=C(C)CN(Cc1ccccc1)C(=S)Nc1ccccc1,"inconclusive [inhibitor, single point]"
8,OCCCN1c2ccccc2Nc2nnc(-c3ccccc3)cc21,"inconclusive [inhibitor, single point]"
9,Cc1ccc(NC(=S)NNC(=O)c2cn(C)nc2C)cc1,inactive
10,Cc1sc2ncnc(SCC(=O)c3ccc(O)cc3O)c2c1C,"inconclusive [inhibitor, single point]"
11,Cc1cccc(NCc2ccc(O)c3ncccc23)c1,"inconclusive [inhibitor, single point]"
12,Cc1cccc(C)c1NC(=S)NC1CCCCC1,active: 4.47 µM
13,Fc1ccc(C(c2ccc(F)cc2)N2CCN(C/C=C\c3ccccc3)CC2)cc1,inactive
14,Cc1cc(SCC(=O)N/N=C/c2ccc(O)c(O)c2O)c(C)cc1Br,"inconclusive [inhibitor, single point]"
15,CCN1C(=O)N(CC)C2C1N(CO)C(=O)N2CO (configuration not stated),inactive
16,CCCCCN=Cc1c(C)[nH]n(-c2nc3ccccc3s2)c1=O,"inconclusive [inhibitor, single point]"
17,Cc1ccc(/C=N/N=C2/NC(=O)C(CC(=O)Nc3ccc(Cl)cc3)S2)o1 (configuration not stated),"inconclusive [inhibitor, single point]"
18,O=C(Oc1ccccc1/C=C\C(=O)c1cc2ccccc2o1)c1ccccc1,"inconclusive [inhibitor, single point]"
19,CNC(=S)N/N=C/c1ccco1,active: 5.62 µM
20,Cc1ccc(-c2nc(SCC(=O)Nc3cc(S(=O)(=O)N4CCCCC4)ccc3Cl)n[nH]2)cc1,"inconclusive [inhibitor, single point]"
21,O=C(Nc1nc2cc3c(cc2s1)OCCO3)C1=COCCO1,active: 2.24 µM
22,O=C(NNC(=O)c1ccccc1C(=O)O)c1ccc(O)cc1,"inconclusive [inhibitor, partial curve]"
